Measured values reported in PMC4336329 (PLoS ONE, 2015).
Among all 310,000 compounds or so, about 2,200 (0.71%) showed an effect of 50% or more. The effect is printed as a negative number. The list shows a part of the results.

The molecules below were run against human ether-à-go-go-related gene (hERG) potassium channel (human, UniProt Q12809) (assay: primary screen, population patch clamp on CHO cells stably expressing hERG).
human ether-à-go-go-related gene (hERG) potassium channel, sequence (Q12809 whole entry, looked up): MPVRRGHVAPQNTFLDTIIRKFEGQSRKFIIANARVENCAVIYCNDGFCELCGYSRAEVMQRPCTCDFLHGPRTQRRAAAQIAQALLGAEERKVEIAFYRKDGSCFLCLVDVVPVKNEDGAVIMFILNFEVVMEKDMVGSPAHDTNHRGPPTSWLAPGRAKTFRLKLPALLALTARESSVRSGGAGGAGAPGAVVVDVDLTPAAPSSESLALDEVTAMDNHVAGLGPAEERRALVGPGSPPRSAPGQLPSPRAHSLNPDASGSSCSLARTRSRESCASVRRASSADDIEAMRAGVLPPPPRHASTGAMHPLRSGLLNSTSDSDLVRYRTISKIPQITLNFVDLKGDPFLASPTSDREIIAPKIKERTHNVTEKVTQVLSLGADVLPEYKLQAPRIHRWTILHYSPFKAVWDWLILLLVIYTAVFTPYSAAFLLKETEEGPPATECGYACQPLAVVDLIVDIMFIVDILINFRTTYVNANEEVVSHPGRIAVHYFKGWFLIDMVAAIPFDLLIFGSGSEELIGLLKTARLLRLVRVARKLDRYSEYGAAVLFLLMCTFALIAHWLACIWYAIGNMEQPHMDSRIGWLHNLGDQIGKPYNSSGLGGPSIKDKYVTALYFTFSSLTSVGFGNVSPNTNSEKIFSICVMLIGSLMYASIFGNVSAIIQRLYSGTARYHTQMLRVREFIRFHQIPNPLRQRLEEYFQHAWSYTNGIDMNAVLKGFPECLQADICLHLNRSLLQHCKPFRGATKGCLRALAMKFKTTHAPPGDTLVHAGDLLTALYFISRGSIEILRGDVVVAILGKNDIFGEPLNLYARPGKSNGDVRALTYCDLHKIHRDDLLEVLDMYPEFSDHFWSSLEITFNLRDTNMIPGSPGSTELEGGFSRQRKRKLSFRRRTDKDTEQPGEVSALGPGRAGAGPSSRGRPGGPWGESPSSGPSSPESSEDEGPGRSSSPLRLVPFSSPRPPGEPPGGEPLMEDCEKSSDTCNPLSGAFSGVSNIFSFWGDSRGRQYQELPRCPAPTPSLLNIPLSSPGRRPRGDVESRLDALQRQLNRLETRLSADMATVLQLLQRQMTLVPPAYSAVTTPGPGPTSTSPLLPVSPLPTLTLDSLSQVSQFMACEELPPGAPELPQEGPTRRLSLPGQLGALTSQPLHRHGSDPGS

Row | SMILES | hERG current change (%, negative = inhibition) at 1uM
1 | Cc1c(Cl)cccc1NC(=O)CCN1CCC(C(N)=O)CC1 | 10.7%
2 | CCOC(=O)[C@H]1[C@H]2COc3ccc(OC)cc3[C@@H]2N2C(=O)CN(Cc3ccc(OC)cc3)C(=O)[C@@]12C | 8.8%
3 | O=C1N=C(N2CCOCC2)S/C1=C\c1ccccc1OS(=O)(=O)c1ccccc1 | 10.6%
4 | O=[N+]([O-])c1cccc(S(=O)(=O)NCC2CC3CCC2C3)c1 (stereo not shown) | 10.1%
5 | Cc1cccc(C)c1NC(=O)/C(C#N)=C/c1cccs1 | 4.78%
6 | CCCCn1c(O)c(C(CC)=NCCc2ccccc2)c(=O)[nH]c1=O | 7.67%
7 | Oc1c(Cl)cc(CN2CCOCC2)c2cccnc12 | 8.2%
8 | Cn1c(NC(=O)/C=C/c2c(F)cccc2Cl)cc(=O)n(C)c1=O | 15.8%
9 | CC(=O)c1cc2c(cc1NC(=O)c1ccc(Cl)cc1)OCCO2 | 18.8%
10 | COC(=O)CCC(=O)Nc1cc(Cl)cc(Cl)c1 | 7.59%
11 | Cc1ccc(C(CC(=O)N2CCOCC2)c2ccco2)cc1 (stereo not shown) | 10.6%
12 | CCN1C(=O)CSc2ccc(C(=O)OC)cc21 | 7.48%
13 | CC1CC(C)CN(C(=O)C(NS(=O)(=O)c2ccc(Br)s2)c2ccccc2)C1 (stereo not shown) | 9.39%
14 | Cc1ccc(C2c3sc(=O)[nH]c3SC3C(=O)NC(=O)C32)cc1 (stereo not shown) | 11.2%
15 | CCOC(=O)C1=C(COC(=O)C2CC(=O)N(c3ccc(C)cc3)C2)NC(=O)NC1C (stereo not shown) | 6.47%
16 | COc1ccc(CN=C(C)c2c(C(F)(F)F)[nH]n(-c3nc4ccccc4s3)c2=O)cc1 | 15%
17 | COc1cc(C(=O)OCCN2CCCCC2)ccc1O.Cl | 8.41%
18 | COc1cc(NC(=O)c2cccc3c2C(=O)N(Cc2cccnc2)C3)cc(OC)c1OC | -22.7%
19 | COc1cccc(/C=C2/Sc3ccc(C(=O)NCCCN4CCCC4)cc3NC2=O)c1 | -20.2%
20 | Cl.OC(CN1C2=NCCN2c2ccccc21)c1ccc2c(c1)OCO2 (stereo not shown) | -27.7%
21 | COc1ccc(NC(=O)Nc2cnccn2)cc1OC | 8.02%
22 | Cc1ccnc(NC(=O)CNC(=O)Cc2cccc3ccccc23)c1 | 12.1%
23 | O=C(Nc1ccnn1C1CCN(C2CCCC2)CC1)c1ccccc1Cl | 6.27%
24 | O=[N+]([O-])c1cccc(S(=O)(=O)N2CCCCCC2)c1 | 4.41%
25 | Cc1cc2c(c(=O)n1Cc1cccnc1)C(c1cccs1)C(C#N)=C(N)O2 (stereo not shown) | 9.61%
